Laboratory results taken from the supplement of paper PMC11741623.
Some of the results follow. Interaction screen of human proteins with wild-type SARS-CoV-2 proteins by split-DHFR complementation in yeast, 1 µg/mL methotrexate. Value = fitness of the pair (three or more lineages) minus that of the viral protein without a human partner, on a scale set by negative (0) and fused positive (1) controls, mean of up to three cultures; higher = more likely to interact. Active = false discovery rate below 0.05 (one-sided t-test) in at least one culture. Nearly all pairs are not hits, and differences among them are mostly noise (correlation between cultures about 0.3); most hits were seen in one culture only. Human sequences are the Swiss-Prot entries looked up by gene name; the clone may be another isoform. NSP2 values were corrected by the authors for a growth advantage. Listed are human proteins with a hit and a random twelfth of the others.

B1: FADS3, Q9Y5Q0 (protein)
chain: MGGVGEPGPREGPAQPGAPLPTFCWEQIRAHDQPGDKWLVIERRVYDISRWAQRHPGGSRLIGHHGAEDATDAFRAFHQDLNFVRKFLQPLLIGELAPEEPSQDGPLNAQLVEDFRALHQAAEDMKLFDASPTFFAFLLGHILAMEVLAWLLIYLLGPGWVPSALAAFILAISQAQSWCLQHDLGHASIFKKSWWNHVAQKFVMGQLKGFSAHWWNFRHFQHHAKPNIFHKDPDVTVAPVFLLGESSVEYGKKKRRYLPYNQQHLYFFLIGPPLLTLVNFEVENLAYMLVCMQWADLLWAASFYARFFLSYLPFYGVPGVLLFFVAVRVLESHWFVWITQMNHIPKEIGHEKHRDWVSSQLAATCNVEPSLFTNWFSGHLNFQIEHHLFPRMPRHNYSRVAPLVKSLCAKHGLSYEVKPFLTALVDIVRSLKKSGDIWLDAYLHQ
B2: OTUD3, Q5T2D3 (protein)
chain: MSRKQAAKSRPGSGSRKAEAERKRDERAARRALAKERRNRPESGGGGGCEEEFVSFANQLQALGLKLREVPGDGNCLFRALGDQLEGHSRNHLKHRQETVDYMIKQREDFEPFVEDDIPFEKHVASLAKPGTFAGNDAIVAFARNHQLNVVIHQLNAPLWQIRGTEKSSVRELHIAYRYGEHYDSVRRINDNSEAPAHLQTDFQMLHQDESNKREKIKTKGMDSEDDLRDEVEDAVQKVCNATGCSDFNLIVQNLEAENYNIESAIIAVLRMNQGKRNNAEENLEPSGRVLKQCGPLWEEGGSGARIFGNQGLNEGRTENNKAQASPSEENKANKNQLAKVTNKQRREQQWMEKKKRQEERHRHKALESRGSHRDNNRSEAEANTQVTLVKTFAALNI
B3: KIR3DS1, Q14943 (protein)
chain: MLLMVVSMACVGLFLVQRAGPHMGGQDKPFLSAWPSAVVPRGGHVTLRCHYRHRFNNFMLYKEDRIHVPIFHGRIFQEGFNMSPVTTAHAGNYTCRGSHPHSPTGWSAPSNPMVIMVTGNHRKPSLLAHPGPLVKSGERVILQCWSDIMFEHFFLHREWISKDPSRLVGQIHDGVSKANFSIGSMMRALAGTYRCYGSVTHTPYQLSAPSDPLDIVVTGLYEKPSLSAQPGPKVQAGESVTLSCSSRSSYDMYHLSREGGAHERRLPAVRKVNRTFQADFPLGPATHGGTYRCFGSFRHSPYEWSDPSDPLLVSVTGNPSSSWPSPTEPSSKSGNLRHLHILIGTSVVKIPFTILLFFLLHRWCSNKKKCCCNGPRACREQK

Target: SARS-CoV-2 E
Test: yeast fitness gain over the viral ORF with no human partner (scaled fitness); higher = more likely to interact
Protocol: (§1)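 Split mouse DHFR complementation in pooled diploid yeast: human ORFeome clones carry one fragment and viral ORFs the other; barcoded lineages compete in 1 µg/mL methotrexate and fitness is read by barcode sequencing in up to three cultures.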

Q: With B1 as the binder, how does the yeast fitness gain read?
A: The yeast fitness gain was inactive: -0.0294.

Q: B2 was tested. Which yeast fitness gain did it give?
A: Its yeast fitness gain is inactive: -0.0532.

Q: With B3 as the binder, how does the yeast fitness gain read?
A: The yeast fitness gain was inactive: -0.0131.

Target: SARS-CoV-2 M
Test: as above
Protocol: as §1

Q: Which yeast fitness gain does the source give for B1 here?
A: The yeast fitness gain was inactive: 0.0479.

Q: B2 was tested. Which yeast fitness gain did it give?
A: The yeast fitness gain was inactive: 0.0734.

Q: How did the yeast fitness gain turn out when B3 was run?
A: The yeast fitness gain was inactive: -0.0899.

Target: SARS-CoV-2 N
Test: as above
Protocol: as §1

Q: With B1 as the binder, how does the yeast fitness gain read?
A: Its yeast fitness gain is inactive: 0.0598.

Q: For B2, which yeast fitness gain is on record?
A: The yeast fitness gain was inactive: -0.0529.

Q: How did the yeast fitness gain turn out when B3 was run?
A: The yeast fitness gain was inactive: 0.0449.

Target: SARS-CoV-2 NSP1
Test: as above
Protocol: as §1

Q: With B1 as the binder, how does the yeast fitness gain read?
A: The yeast fitness gain was inactive: -0.0062.

Q: For B2, which yeast fitness gain is on record?
A: The yeast fitness gain was inactive: 0.0159.

Q: With B3 as the binder, how does the yeast fitness gain read?
A: The yeast fitness gain was inactive: 0.0348.

Target: SARS-CoV-2 NSP10
Test: as above
Protocol: as §1

Q: B1 was tested. Which yeast fitness gain did it give?
A: The yeast fitness gain was inactive: -0.00303.

Q: How did the yeast fitness gain turn out when B2 was run?
A: Its yeast fitness gain is inactive: -0.01.

Q: How did the yeast fitness gain turn out when B3 was run?
A: Its yeast fitness gain is inactive: -0.00471.

Target: SARS-CoV-2 NSP12
Test: as above
Protocol: as §1

Q: How did the yeast fitness gain turn out when B1 was run?
A: Its yeast fitness gain is inactive: 0.0213.

Q: Which yeast fitness gain does the source give for B2 here?
A: Its yeast fitness gain is inactive: -0.00517.

Q: B3 was tested. Which yeast fitness gain did it give?
A: Its yeast fitness gain is inactive: 0.0458.

Target: SARS-CoV-2 NSP13
Test: as above
Protocol: as §1

Q: Which yeast fitness gain does the source give for B1 here?
A: The yeast fitness gain was inactive: 0.0262.

Q: How did the yeast fitness gain turn out when B2 was run?
A: Its yeast fitness gain is inactive: -0.00552.

Q: For B3, which yeast fitness gain is on record?
A: Its yeast fitness gain is inactive: -0.0245.

Target: SARS-CoV-2 NSP14
Test: as above
Protocol: as §1

Q: How did the yeast fitness gain turn out when B1 was run?
A: Its yeast fitness gain is inactive: 0.0497.

Q: With B2 as the binder, how does the yeast fitness gain read?
A: The yeast fitness gain was inactive: 0.0954.

Target: SARS-CoV-2 NSP15
Test: as above
Protocol: as §1

Q: With B1 as the binder, how does the yeast fitness gain read?
A: The yeast fitness gain was inactive: 0.0465.

Q: How did the yeast fitness gain turn out when B2 was run?
A: The yeast fitness gain was inactive: 0.0106.

Q: Which yeast fitness gain does the source give for B3 here?
A: Its yeast fitness gain is inactive: -0.0435.

Target: SARS-CoV-2 NSP16
Test: as above
Protocol: as §1

Q: How did the yeast fitness gain turn out when B1 was run?
A: The yeast fitness gain was inactive: -0.0377.

Q: How did the yeast fitness gain turn out when B2 was run?
A: The yeast fitness gain was inactive: 0.00766.

Q: For B3, which yeast fitness gain is on record?
A: Its yeast fitness gain is inactive: -0.0581.

Target: SARS-CoV-2 NSP2
Test: as above
Protocol: as §1

Q: With B1 as the binder, how does the yeast fitness gain read?
A: The yeast fitness gain was inactive: -0.129.

Q: B2 was tested. Which yeast fitness gain did it give?
A: Its yeast fitness gain is inactive: -0.0592.

Q: With B3 as the binder, how does the yeast fitness gain read?
A: The yeast fitness gain was inactive: -0.144.

Target: SARS-CoV-2 NSP4
Test: as above
Protocol: as §1

Q: For B1, which yeast fitness gain is on record?
A: Its yeast fitness gain is inactive: 0.175.

Q: With B2 as the binder, how does the yeast fitness gain read?
A: Its yeast fitness gain is inactive: -0.397.

Q: With B3 as the binder, how does the yeast fitness gain read?
A: Its yeast fitness gain is inactive: 0.0869.

Target: SARS-CoV-2 NSP5
Test: as above
Protocol: as §1

Q: With B1 as the binder, how does the yeast fitness gain read?
A: The yeast fitness gain was inactive: 0.00351.

Q: B2 was tested. Which yeast fitness gain did it give?
A: Its yeast fitness gain is inactive: -0.0198.

Q: Which yeast fitness gain does the source give for B3 here?
A: The yeast fitness gain was inactive: -0.0626.

Target: SARS-CoV-2 NSP6
Test: as above
Protocol: as §1

Q: B1 was tested. Which yeast fitness gain did it give?
A: Its yeast fitness gain is inactive: -0.00149.

Q: With B2 as the binder, how does the yeast fitness gain read?
A: The yeast fitness gain was inactive: 0.0103.

Q: How did the yeast fitness gain turn out when B3 was run?
A: Its yeast fitness gain is inactive: -0.059.

Target: SARS-CoV-2 NSP7
Test: as above
Protocol: as §1

Q: Which yeast fitness gain does the source give for B1 here?
A: The yeast fitness gain was inactive: 0.0427.

Q: With B2 as the binder, how does the yeast fitness gain read?
A: The yeast fitness gain was inactive: 0.00892.

Q: For B3, which yeast fitness gain is on record?
A: The yeast fitness gain was inactive: 0.00541.

Target: SARS-CoV-2 NSP8
Test: as above
Protocol: as §1

Q: Which yeast fitness gain does the source give for B1 here?
A: Its yeast fitness gain is inactive: 0.0528.

Q: For B2, which yeast fitness gain is on record?
A: The yeast fitness gain was inactive: 0.00115.

Q: With B3 as the binder, how does the yeast fitness gain read?
A: The yeast fitness gain was inactive: 0.0794.

Target: SARS-CoV-2 NSP9
Test: as above
Protocol: as §1

Q: B1 was tested. Which yeast fitness gain did it give?
A: Its yeast fitness gain is inactive: -0.00631.

Q: Which yeast fitness gain does the source give for B2 here?
A: Its yeast fitness gain is inactive: 0.15.

Q: Which yeast fitness gain does the source give for B3 here?
A: Its yeast fitness gain is inactive: 0.0262.

Target: SARS-CoV-2 ORF10
Test: as above
Protocol: as §1

Q: B1 was tested. Which yeast fitness gain did it give?
A: The yeast fitness gain was inactive: 0.0128.

Q: With B2 as the binder, how does the yeast fitness gain read?
A: The yeast fitness gain was inactive: 0.00511.

Q: With B3 as the binder, how does the yeast fitness gain read?
A: Its yeast fitness gain is inactive: -0.0261.

Target: SARS-CoV-2 ORF3A
Test: as above
Protocol: as §1

Q: For B1, which yeast fitness gain is on record?
A: The yeast fitness gain was inactive: 0.0168.

Q: For B2, which yeast fitness gain is on record?
A: The yeast fitness gain was inactive: -0.0871.

Q: B3 was tested. Which yeast fitness gain did it give?
A: The yeast fitness gain was inactive: -0.0293.

Target: SARS-CoV-2 ORF3B
Test: as above
Protocol: as §1

Q: With B1 as the binder, how does the yeast fitness gain read?
A: Its yeast fitness gain is inactive: 0.0221.

Q: For B2, which yeast fitness gain is on record?
A: The yeast fitness gain was inactive: -0.0158.

Q: For B3, which yeast fitness gain is on record?
A: Its yeast fitness gain is inactive: 0.0164.

Target: SARS-CoV-2 ORF6
Test: as above
Protocol: as §1

Q: For B1, which yeast fitness gain is on record?
A: Its yeast fitness gain is inactive: 0.0137.

Q: Which yeast fitness gain does the source give for B2 here?
A: Its yeast fitness gain is inactive: 0.0291.

Q: For B3, which yeast fitness gain is on record?
A: The yeast fitness gain was inactive: -0.00273.

Target: SARS-CoV-2 ORF7A
Test: as above
Protocol: as §1

Q: For B1, which yeast fitness gain is on record?
A: Its yeast fitness gain is inactive: -0.0327.

Q: B2 was tested. Which yeast fitness gain did it give?
A: The yeast fitness gain was inactive: 0.0141.

Q: B3 was tested. Which yeast fitness gain did it give?
A: The yeast fitness gain was inactive: -0.0804.

Target: SARS-CoV-2 ORF7B
Test: as above
Protocol: as §1

Q: How did the yeast fitness gain turn out when B1 was run?
A: Its yeast fitness gain is inactive: 0.0541.

Q: How did the yeast fitness gain turn out when B2 was run?
A: The yeast fitness gain was inactive: -0.0486.

Q: With B3 as the binder, how does the yeast fitness gain read?
A: The yeast fitness gain was inactive: -0.0843.

Target: SARS-CoV-2 ORF8
Test: as above
Protocol: as §1

Q: For B1, which yeast fitness gain is on record?
A: Its yeast fitness gain is inactive: 0.0602.

Q: For B2, which yeast fitness gain is on record?
A: The yeast fitness gain was inactive: -0.0201.

Q: Which yeast fitness gain does the source give for B3 here?
A: Its yeast fitness gain is inactive: 0.0192.

Target: SARS-CoV-2 ORF9B
Test: as above
Protocol: as §1

Q: With B1 as the binder, how does the yeast fitness gain read?
A: Its yeast fitness gain is inactive: -0.00303.

Q: How did the yeast fitness gain turn out when B2 was run?
A: The yeast fitness gain was inactive: 0.00714.

Q: How did the yeast fitness gain turn out when B3 was run?
A: The yeast fitness gain was inactive: -0.00794.

Target: SARS-CoV-2 ORF9Bwu (the 73-codon ORF)
Test: as above
Protocol: as §1

Q: B1 was tested. Which yeast fitness gain did it give?
A: The yeast fitness gain was inactive: 0.0176.

Q: B2 was tested. Which yeast fitness gain did it give?
A: Its yeast fitness gain is inactive: 0.00182.

Q: B3 was tested. Which yeast fitness gain did it give?
A: The yeast fitness gain was inactive: -0.061.

Target: SARS-CoV-2 S
Test: as above
Protocol: as §1

Q: B1 was tested. Which yeast fitness gain did it give?
A: Its yeast fitness gain is inactive: 0.0551.

Q: For B2, which yeast fitness gain is on record?
A: Its yeast fitness gain is inactive: 0.0023.

Q: For B3, which yeast fitness gain is on record?
A: Its yeast fitness gain is inactive: 0.0053.
